According to PubChem BioAssay (Tox21):
Values joined by “and” are separate entries in the source; they are usually repeats but may differ in a detail not shown here. Equal entries are not always repeated. This list was built around the results that the source calls inconclusive (neither active nor inactive); the mix of calls is not that of the screen. For part of these data: A potency beside an inconclusive call is a rough fit, not a confirmed value. Where a structure was tested more than once in an assay, its records may differ in their call. Active and inactive are the calls of the source. Unless noted, the call rests on the fitted dose curve; in most records, active means well fitted curve in the direction sought with a large enough effect in the repeat runs; inconclusive means weak or mixed curves; inactive means no such curve, though single readings can be large; an effect the other way counts as inactive or inconclusive.

What was measured:
[1] = qHTS RealTime-Glo MT Cell Viability Assay in HEK293 cells - 24 hour (AID 1224886); further: nearly all actives have a fitted effect of over 50% in size; further: potency means the concentration at half of the fitted maximal effect
Method in brief: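 Reads taken at 0, 8, 16, 24, 32 and 40 h from the same wells. HEK293 cells (600/well) carried RealTime-Glo reagents from seeding, with compound added after a 5 h settle at 37 C.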

[2] = molecular target: Androgen receptor (Homo sapiens) (UniProt P10275); assay: qHTS assay to identify small molecule antagonists of the androgen receptor (AR) signaling pathway using the MDA cell line in the presence of 0.5 nM R1881 (AID 1259243); further: nearly all actives have a fitted effect of over 50% in size; further: potency means the concentration at half of the fitted maximal effect
Method in brief: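 Reporter cells cultured without CO2 receive test chemicals, then 0.5 nM R1881 final; after 16 hr at 37C, ONE-Glo is added and light output recorded.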

[3] = qHTS assay to identify small molecule phospholipidosis (PLD) inducers (AID 1259344; active means well fitted curve in the direction sought with a large enough effect; inconclusive means small, poorly fitted or top-dose-only effect, or another doubt; inactive means no such curve, though single readings can be large; an effect the other way counts as inactive or inconclusive)
Method in brief: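 Quantitative HTS in HepG2: compound plus LipidTOX Red dye for 24 h, paraformaldehyde fixation with Hoechst 33342, widefield high-content imaging; amiodarone as positive and DMSO as negative control.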

[4] = qHTS assay to identify small molecule antagonists of the sonic hedgehog signaling (Shh) pathway - cell viability counter screen (AID 1259367); further: nearly all actives have a fitted effect of over 55% in size; further: potency means the concentration at half of the fitted maximal effect
Method in brief: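 Seed 3T3 Gli1-Luc cells at 2,000 per well; incubate 4 hr; add compound in DMSO, then conditioned medium; incubate at 37C with 5% CO2; add CellTiter-Fluor after 23 hr; read fluorescence 1 hr later.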

[5] = qHTS assay to identify small molecule antagonists of the sonic hedgehog signaling (Shh) pathway (AID 1259369; calls by dose curve; further: nearly all actives have a fitted effect of over 45% in size; further: potency means the concentration at half of the fitted maximal effect)
Method in brief: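 For antagonist detection, the reporter line received test compounds together with conditioned medium, incubated 24hr at 37 C, 5% CO2, then luminescence was recorded following 30min room-temperature luciferase reagent incubation.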

[6] = qHTS assay to identify small molecule agonists of the sonic hedgehog signaling (Shh) pathway - cell viability counter screen (AID 1259366); further: nearly all actives have a fitted effect of over 50% in size; further: potency means the concentration at half of the fitted maximal effect
Method in brief: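 NIH/3T3-derived 3T3 Gli1-Luc cells (stable Gli1-responsive firefly luciferase reporter) were seeded, rested 4 hr at 37 C/5% CO2, then exposed to compounds in DMSO for 24 hr; viability was read by CellTiter-Fluor fluorescence in the same wells.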

[7] = qHTS assay to identify small molecule antagonists of the androgen receptor (AR) signaling pathway using the MDA cell line in the presence of 0.5 nM R1881 - cell viability counter screen (AID 1259242); further: nearly all actives have a fitted effect of over 45% in size; further: potency means the concentration at half of the fitted maximal effect
Method in brief: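 Viability of MDA-kb2 cells was multiplexed with the luciferase AR readout; after 16 hr with compounds and R1881 at 0.5 nM final, CellTiter-Fluor fluorescence was recorded.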

[8] = molecular target: Estrogen receptor beta (Homo sapiens) (UniProt Q92731); assay: qHTS assay to identify small molecule agonists of the estrogen receptor beta (ER-beta) signaling pathway (AID 1259377; active means well fitted activation curve with a large enough effect in the signal ratio in the repeat runs, not every such curve was filed as active; inconclusive means weak or mixed curves, or effect the other way; the % refers to the signal ratio; further: potency means the concentration at half of the fitted maximal effect); details: ER-beta-UAS-bla HEK293T, beta-lactamase FRET ratio, 16 h; series mostly up to 92.4 µM
Method in brief: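 ER-beta-UAS-bla HEK293T (GripTite) cells carrying a UAS-driven beta-lactamase reporter, in medium with 2% charcoal-stripped FBS, were exposed to compounds for 16 hr at 37C; LiveBLAzer B/G FRET substrate was then added and fluorescence read after 2 hours at room temperature.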

[9] = molecular target: Estrogen receptor (Homo sapiens) (UniProt P03372); assay: qHTS assay to identify small molecule antagonists of the estrogen receptor alpha (ER-alpha) signaling pathway using the BG1 cell line in the presence of 0.1 nM 17-beta-estradiol (AID 1259244); further: nearly all actives have a fitted effect of over 50% in size; further: potency means the concentration at half of the fitted maximal effect
Method in brief: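 Estradiol at 0.1 nM (final) stimulates the endogenous ER-alpha of VM7Luc4E2 cells carrying an ERE-driven luciferase; compounds are co-incubated 22 h at 37C and luciferase output quantified by luminescence.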

[10] = qHTS assay to identify small molecule HDAC inhibitors - cell viability counter screen (AID 1259365); further: nearly all actives have a fitted effect of over 50% in size; further: potency means the concentration at half of the fitted maximal effect
Method in brief: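 Wild-type HCT-116 cells were seeded at 1,500 per well, incubated overnight at 37 C, then exposed to compounds in DMSO for 2hr. Viability was read by CellTiter-Glo luminescence after 30min at room temperature.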

[11] = qHTS assay to identify small molecule antagonists of the estrogen receptor alpha (ER-alpha) signaling pathway using the BG1 cell line in the presence of 0.1 nM 17-beta-estradiol - cell viability counter screen (AID 1259241); further: potency means the concentration at half of the fitted maximal effect; nearly all actives have a fitted effect of over 40% in size
Method in brief: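 VM7Luc4E2 cells (endogenous ER-alpha, 4×ERE-luciferase), hormone-starved 5 days in charcoal-stripped FBS, were treated with compounds plus 0.1 nM 17beta-estradiol for 22 hr at 37C; viability read in same wells as CellTiter-Fluor live-cell protease fluorescence.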

[12] = qHTS RealTime-Glo MT Cell Viability Assay in HEK293 cells - 8 hour (AID 1224887); further: nearly all actives have a fitted effect of over 50% in size; further: potency means the concentration at half of the fitted maximal effect
Method in brief: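 Viable HEK293 cells reduce a cell-permeant prosubstrate; the product diffuses out and is consumed by NanoLuc in the medium to give light. Compounds went in after a 5 h incubation and plates were read over the treatment course.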

[13] = A CellTox Green Cytotoxicity Assay to monitor cytotoxicity in HepG2 cells - 8 hour (AID 1224890); further: nearly all actives have a fitted effect of over 45% in size; further: potency means the concentration at half of the fitted maximal effect
Method in brief: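 Using 1536-well format, dye-containing HepG2 suspension was seeded, allowed 5 h at 37 C/5% CO2, dosed by pintool with compounds, positive and negative controls, and imaged for fluorescence across 40 h.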
Tags describe the fitted curve by direction and shape or compound fluorescence and quenching.

Sequence of UniProt P03372 (P03372 whole entry, looked up): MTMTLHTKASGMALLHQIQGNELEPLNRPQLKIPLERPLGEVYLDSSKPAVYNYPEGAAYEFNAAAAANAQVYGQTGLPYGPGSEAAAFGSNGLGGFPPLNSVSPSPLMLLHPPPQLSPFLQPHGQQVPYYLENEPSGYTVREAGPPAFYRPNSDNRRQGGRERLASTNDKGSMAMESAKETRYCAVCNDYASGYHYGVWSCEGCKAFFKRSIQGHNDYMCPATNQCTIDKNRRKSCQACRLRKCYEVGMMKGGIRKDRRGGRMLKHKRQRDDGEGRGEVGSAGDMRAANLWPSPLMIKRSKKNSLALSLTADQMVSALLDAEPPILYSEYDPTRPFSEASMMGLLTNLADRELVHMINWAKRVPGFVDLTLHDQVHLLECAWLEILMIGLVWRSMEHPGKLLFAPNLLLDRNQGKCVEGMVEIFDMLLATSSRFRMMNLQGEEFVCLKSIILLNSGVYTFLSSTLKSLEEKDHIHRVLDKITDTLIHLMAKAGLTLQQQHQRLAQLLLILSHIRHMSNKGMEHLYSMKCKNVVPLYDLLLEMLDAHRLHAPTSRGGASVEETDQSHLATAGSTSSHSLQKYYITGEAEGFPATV
Sequence of UniProt P10275 (P10275 whole entry, looked up): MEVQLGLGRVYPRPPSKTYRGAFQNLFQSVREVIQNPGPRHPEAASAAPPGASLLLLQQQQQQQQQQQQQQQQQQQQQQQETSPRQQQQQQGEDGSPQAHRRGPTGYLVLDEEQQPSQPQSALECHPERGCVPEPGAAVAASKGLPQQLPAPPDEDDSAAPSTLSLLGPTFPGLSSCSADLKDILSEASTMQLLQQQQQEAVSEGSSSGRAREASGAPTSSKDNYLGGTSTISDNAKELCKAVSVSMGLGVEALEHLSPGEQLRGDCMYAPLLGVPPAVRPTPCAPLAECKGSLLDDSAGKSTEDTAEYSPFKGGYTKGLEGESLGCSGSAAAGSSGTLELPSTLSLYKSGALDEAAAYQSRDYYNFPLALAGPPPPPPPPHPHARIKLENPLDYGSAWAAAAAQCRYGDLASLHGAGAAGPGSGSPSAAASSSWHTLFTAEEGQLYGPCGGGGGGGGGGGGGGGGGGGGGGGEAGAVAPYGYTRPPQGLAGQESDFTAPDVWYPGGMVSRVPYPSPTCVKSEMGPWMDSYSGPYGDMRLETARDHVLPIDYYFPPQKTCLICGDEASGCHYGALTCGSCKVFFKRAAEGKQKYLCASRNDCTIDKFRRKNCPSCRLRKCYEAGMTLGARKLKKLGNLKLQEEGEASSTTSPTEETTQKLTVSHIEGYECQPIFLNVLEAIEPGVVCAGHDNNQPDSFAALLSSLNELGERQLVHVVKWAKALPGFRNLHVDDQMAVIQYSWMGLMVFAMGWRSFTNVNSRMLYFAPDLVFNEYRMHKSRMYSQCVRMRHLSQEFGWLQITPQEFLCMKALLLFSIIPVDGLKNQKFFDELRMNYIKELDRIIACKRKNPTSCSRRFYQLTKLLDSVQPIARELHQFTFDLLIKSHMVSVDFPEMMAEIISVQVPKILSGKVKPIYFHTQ
Sequence of UniProt Q92731 (Q92731 whole entry, looked up): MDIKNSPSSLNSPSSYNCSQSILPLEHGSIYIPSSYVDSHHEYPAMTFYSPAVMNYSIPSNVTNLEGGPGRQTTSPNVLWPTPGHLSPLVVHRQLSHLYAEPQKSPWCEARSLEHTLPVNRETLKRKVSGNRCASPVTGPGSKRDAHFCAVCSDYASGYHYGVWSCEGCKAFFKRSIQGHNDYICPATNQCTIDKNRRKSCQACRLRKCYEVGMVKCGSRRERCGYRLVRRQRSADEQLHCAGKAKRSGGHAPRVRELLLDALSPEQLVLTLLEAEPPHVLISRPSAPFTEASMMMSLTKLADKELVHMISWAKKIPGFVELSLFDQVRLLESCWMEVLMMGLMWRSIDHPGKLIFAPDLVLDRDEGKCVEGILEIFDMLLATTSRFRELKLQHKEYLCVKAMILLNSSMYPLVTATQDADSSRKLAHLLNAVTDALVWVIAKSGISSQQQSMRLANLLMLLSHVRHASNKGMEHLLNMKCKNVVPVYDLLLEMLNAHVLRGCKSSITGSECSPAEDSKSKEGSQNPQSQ

For CC(C)=O, which Potency [1] is on record?
Its Potency is “inactive”.

What about the Potency [2] of the same compound?
Its Potency is “inactive”.

What about the Potency [3] of the same compound?
Its Potency is “inactive”.

With CC1=NC(C)OC1C (configuration not stated) as the compound, how does the Potency [1] read?
Its Potency is inconclusive: 17.4 µM [rising, partial curve, poor fit].

What about the Potency [2] of the same compound?
The Potency was inconclusive: 30.6 µM [inhibitor, partial curve, poor fit].

And the Potency [4]?
Its Potency is inconclusive: 77 µM [cytotoxic, single point].

And the Potency [5]?
The Potency was inconclusive: 24.3 µM [inhibitor, partial curve, poor fit].

With CCCN1CCCC[C@H]1C(=O)Nc1c(C)cccc1C as the compound, how does the Potency [1] read?
Its Potency is “inactive”.

And the Potency [6]?
Its Potency is “inactive”.

And the Potency [5]?
The Potency was “inactive”.

Which Potency [1] does the source give for Cc1cc(-c2ccc(N=Nc3cc(S(=O)(=O)O)c4ccccc4c3N)c(C)c2)ccc1N=Nc1cc(S(=O)(=O)O)c2ccccc2c1N here?
The Potency was inconclusive: 1.96 µM [cytotoxic, full curve].

And the Potency [7]?
Its Potency is inconclusive: 2.18 µM [cytotoxic, full curve].

And the Potency [5]?
The Potency was inconclusive: 0.0974 µM [inhibitor, full curve].

For Clc1ccc(Sc2cc(Cl)c(Cl)cc2Cl)cc1, which Potency [1] is on record?
Its Potency is inconclusive: 53.5 µM [cytotoxic, partial curve, poor fit].

And the Potency [8]?
The Potency was “inactive”.

Which Potency [1] does the source give for CC1CCC(C(C)(C)S)C(=O)C1 (configuration not stated) here?
The Potency was active: 3.89 µM.

What about the Potency [4] of the same compound?
The Potency was “inactive”.

And the Potency [5]?
The Potency was inconclusive: 13.7 µM [inhibitor, single point].

What does the source list for CC(=O)[C@H]1CC[C@H]2[C@@H]3C=CC4=CC(=O)CC[C@@]4(C)[C@@H]3CC[C@]12C?
Potency [1]: inconclusive: 16.9 µM [cytotoxic, partial curve, poor fit]; Potency [2]: inconclusive: 0.237 µM [inhibitor, full curve]

Which results are given for CCOc1ccc(NC(C)=O)cc1?
Potency [1]: active: 21.9 µM; Potency [2]: inactive; Potency [5]: inconclusive: 6.31 µM [inhibitor, single point]

Which Potency [1] does the source give for COC(=O)C(c1ccccc1Cl)N1CCc2sccc2C1 (configuration not stated) here?
Its Potency is “inactive”.

What about the Potency [7] of the same compound?
The Potency was “inactive”.

What about the Potency [5] of the same compound?
The Potency was “inactive”.

What does the source list for Cc1cc(C(C#N)c2ccc(Cl)cc2)c(Cl)cc1NC(=O)c1cc(I)cc(I)c1O (configuration not stated)?
Potency [1]: inactive; Potency [7]: inactive; Potency [9]: inconclusive: 23.7 µM [inhibitor, partial curve]; Potency [5]: active: 26.6 µM

For O=c1[nH]cc(F)c(=O)[nH]1, which Potency [1] is on record?
Its Potency is inconclusive: 64 µM [cytotoxic, single point].

What about the Potency [7] of the same compound?
The Potency was inconclusive: 44.9 µM [cytotoxic, partial curve].

And the Potency [5]?
The Potency was “inactive and inconclusive: 3.76 µM [inhibitor, single point]”.

And the Potency [8]?
Its Potency is inconclusive: 14.2 µM [rising, full curve].

Which results are given for CC(C)(C)C(=O)OCOC(=O)[C@@H]1N2C(=O)[C@@H](NC(=O)[C@H](N)c3ccccc3)[C@H]2SC1(C)C?
Potency [1]: inactive; Potency [8]: inactive

What does the source list for CCCCCCCCCCCC(=O)OCC(C)OC(=O)CCCCC(=O)O (configuration not stated)?
Potency [1]: inactive; Potency [9]: inactive; Potency [8]: inactive

What does the source list for O=Cc1ccc(C(=O)O)cc1?
Potency [1]: inactive; Potency [10]: inactive

For CCCOCC(C)OCC(C)O (configuration not stated), which Potency [1] is on record?
The Potency was “inactive”.

And the Potency [2]?
The Potency was “inactive”.

Which Potency [1] does the source give for CCOc1ccc(NC(C)=O)cc1N here?
The Potency was “inactive”.

And the Potency [4]?
The Potency was inconclusive: 69.6 µM [cytotoxic, single point].

And the Potency [5]?
Its Potency is inconclusive: 62 µM [inhibitor, partial curve].

What does the source list for CC(=O)OC[C@H]1O[C@@H](n2ncc(=O)[nH]c2=O)[C@H](OC(C)=O)[C@@H]1OC(C)=O?
Potency [1]: inactive; Potency [10]: inconclusive: 0.668 µM [rising, full curve]; Potency [8]: inconclusive: 2.11 µM [rising, partial curve]

Which Potency [1] does the source give for NC1CCCCC1 here?
The Potency was “inactive”.

What about the Potency [8] of the same compound?
The Potency was active: 2.75 µM.

Which results are given for O=C(OCC1CO1)C1CCCCC1C(=O)OCC1CO1 (configuration not stated)?
Potency [1]: inactive; Potency [11]: inconclusive: 30.7 µM [cytotoxic, partial curve]; Potency [5]: inconclusive: 8.64 µM [inhibitor, full curve, poor fit]; Potency [8]: inconclusive: 68.7 µM [rising, single point]

Which Potency [1] does the source give for Oc1cccc2c(O)cccc12 here?
Its Potency is inconclusive: 21.9 µM [rising, partial curve].

What about the Potency [9] of the same compound?
The Potency was active: 54.5 µM.

And the Potency [6]?
The Potency was inconclusive: 54.5 µM [cytotoxic, partial curve].

And the Potency [4]?
Its Potency is active: 30.6 µM.

And the Potency [5]?
Its Potency is active: 10.9 µM.

What about the Potency [8] of the same compound?
Its Potency is inconclusive: 30.6 µM [fluorescent, partial curve].

Which Potency [12] does the source give for COC(C)OC here?
The Potency was “inactive”.

For Cc1ccc([N+](=O)[O-])c(C)c1, which Potency [12] is on record?
The Potency was inconclusive: 55 µM [cytotoxic, single point].

What about the Potency [13] of the same compound?
The Potency was inconclusive: 13.8 µM [activator, full curve, poor fit].

And the Potency [11]?
The Potency was inconclusive: 12.2 µM [cytotoxic, partial curve].

And the Potency [7]?
Its Potency is inconclusive: 15.4 µM [cytotoxic, partial curve].

And the Potency [9]?
The Potency was active: 6.11 µM.

Which Potency [12] does the source give for CC1(C)NC(=O)N(c2ccc([N+](=O)[O-])c(C(F)(F)F)c2)C1=O here?
Its Potency is inconclusive: 34.7 µM [cytotoxic, partial curve] and inconclusive: 21.3 µM [cytotoxic, partial curve, poor fit].

What about the Potency [13] of the same compound?
The Potency was “inactive”.

What about the Potency [6] of the same compound?
Its Potency is inconclusive: 38.6 µM [rising, partial curve].

And the Potency [4]?
The Potency was inconclusive: 34.4 µM [rising, partial curve, poor fit].

What about the Potency [5] of the same compound?
Its Potency is inconclusive: 13.3 µM [inhibitor, partial curve, poor fit].
